{"source": "ChEMBL document CHEMBL4689842", "about": "“EUbOPEN Chemogenomics Library wave 1” (2021)", "assay_type_in_all_cases": "toxicity, cell-based", "key": {"[1]": {"tested_on": "HEK-293T", "assay": "Multiplex assay against HEK293T;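 for Population Tubulin-Different-Phenotype (%): share of the cells with healthy nuclei that show this phenotype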", "settings": "human, 10 µM, compound concentration 10 uM", "method_in_brief": "(§1)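 Cells were classed with CellPathfinder machine-learning gating, first as Hoechst high-intensity objects or normal cells, then (normal cells) as healthy, pyknosed or fragmented nuclei, and finally (pyknosed cells) as mitotic or apoptotic. Staining of live cells at seeding used Hoechst33342, BioTracker Green Microtubule Cytoskeleton Dye, MitoTracker Red and Annexin V Alexa Fluor 680, with imaging on a CQ1 microscope at 37°C and 5% CO2 after compound addition. Tubulin, mitochondrial-mass and membrane-permeability phenotypes are per cents of healthy-nucleus cells.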"}, "[2]": {"tested_on": "U2OS", "assay": "Multiplex assay against U2OS", "settings": "human, 10 µM, compound concentration 10 uM", "method_in_brief": "as §1"}, "[3]": {"tested_on": "Fibroblast", "assay": "Multiplex assay against human fibroblast", "settings": "10 µM, compound concentration 10 uM", "method_in_brief": "as §1"}}, "note": "Not every entry of the source has a single result; some have several. The list is limited to them. The source may hold further records. The records of an entry are repeats (runs, samples, wells, individuals or studies).", "data": [{"smiles": "CN(c1ccccc1CNc1nc(Nc2ccc3c(c2)CC(=O)N3)ncc1C(F)(F)F)S(C)(=O)=O", "values": [{"measurement": "Population Mitochondria Different-Phenotype (%)", "setting": "[1]; 12 h, replicate 1", "value": "13% and 3%"}, {"measurement": "Population Tubulin-Different-Phenotype (%)", "setting": "[1]; 12 h, replicate 1", "value": "27% and 3%"}, {"measurement": "Population Hoechst High Intensity Objects (%)", "setting": "[1]; 12 h, replicate 2", "value": "7% and 2%"}, {"measurement": "Population Tubulin-Different-Phenotype (%)", "setting": "[1]; 12 h, replicate 2", "value": "76% and 11%"}, {"measurement": "Population Mitochondria Different-Phenotype (%)", "setting": "[1]; 24 h, replicate 1", "value": "18% and 4%"}, {"measurement": "Population Pyknosed Nuclei (%)", "setting": "[1]; 24 h, replicate 1", "value": "35% and 5%"}, {"measurement": "Population Tubulin-Different-Phenotype (%)", "setting": "[1]; 24 h, replicate 1", "value": "19% and 6%"}, {"measurement": "Population Fragmented Nuclei (%)", "setting": "[1]; 24 h, replicate 2", "value": "2% and 19%"}, {"measurement": "Population Pyknosed Nuclei (%)", "setting": "[1]; 24 h, replicate 2", "value": "13% and 2%"}, {"measurement": "Population Tubulin-Different-Phenotype (%)", "setting": "[1]; 24 h, replicate 2", "value": "65% and 11%"}, {"measurement": "Population Fragmented Nuclei (%)", "setting": "[2]; 12 h, replicate 1", "value": "30% and 6%"}, {"measurement": "Population Membrane Permeable-Phenotype (%)", "setting": "[2]; 12 h, replicate 1", "value": "46% and 10%"}, {"measurement": "Population Pyknosed Nuclei (%)", "setting": "[2]; 12 h, replicate 1", "value": "24% and 3%"}, {"measurement": "Population Mitotic Cells (%)", "setting": "[2]; 12 h, replicate 2", "value": "8% and 66%"}, {"measurement": "Population Pyknosed Nuclei (%)", "setting": "[2]; 12 h, replicate 2", "value": "16% and 2%"}, {"measurement": "Population Apoptotic (%)", "setting": "[2]; 24 h, replicate 1", "value": "81% and 25%"}, {"measurement": "Population Hoechst High Intensity Objects (%)", "setting": "[2]; 24 h, replicate 1", "value": "18% and 4%"}, {"measurement": "Population Membrane Permeable-Phenotype (%)", "setting": "[2]; 24 h, replicate 1", "value": "55% and 16%"}, {"measurement": "Population Mitotic Cells (%)", "setting": "[2]; 24 h, replicate 1", "value": "18% and 75%"}, {"measurement": "Population Pyknosed Nuclei (%)", "setting": "[2]; 24 h, replicate 1", "value": "27% and 6%"}, {"measurement": "Population Membrane Permeable-Phenotype (%)", "setting": "[2]; 24 h, replicate 2", "value": "31% and 9%"}, {"measurement": "Population Pyknosed Nuclei (%)", "setting": "[2]; 24 h, replicate 2", "value": "33% and 10%"}, {"measurement": "Population Membrane Permeable-Phenotype (%)", "setting": "[3]; 12 h, replicate 1", "value": "51% and 8%"}, {"measurement": "Population Mitochondria Different-Phenotype (%)", "setting": "[3]; 12 h, replicate 1", "value": "9% and 2%"}, {"measurement": "Population Tubulin-Different-Phenotype (%)", "setting": "[3]; 12 h, replicate 1", "value": "62% and 11%"}, {"measurement": "Population Apoptotic (%)", "setting": "[3]; 12 h, replicate 2", "value": "0% and 35%"}, {"measurement": "Population Membrane Permeable-Phenotype (%)", "setting": "[3]; 12 h, replicate 2", "value": "0% and 50%"}, {"measurement": "Population Pyknosed Nuclei (%)", "setting": "[3]; 12 h, replicate 2", "value": "6% and 25%"}, {"measurement": "Population Tubulin-Different-Phenotype (%)", "setting": "[3]; 12 h, replicate 2", "value": "10% and 64%"}, {"measurement": "Population Mitochondria Different-Phenotype (%)", "setting": "[3]; 24 h, replicate 1", "value": "16% and 1%"}, {"measurement": "Population Mitotic Cells (%)", "setting": "[3]; 24 h, replicate 1", "value": "29% and 8%"}, {"measurement": "Population Tubulin-Different-Phenotype (%)", "setting": "[3]; 24 h, replicate 1", "value": "69% and 5%"}, {"measurement": "Population Apoptotic (%)", "setting": "[3]; 24 h, replicate 2", "value": "25% and 83%"}, {"measurement": "Population Mitotic Cells (%)", "setting": "[3]; 24 h, replicate 2", "value": "75% and 16%"}, {"measurement": "Population Tubulin-Different-Phenotype (%)", "setting": "[3]; 24 h, replicate 2", "value": "13% and 60%"}]}, {"smiles": "C#Cc1cccc(Nc2ncnc3cc(OCCOC)c(OCCOC)cc23)c1", "note": "[ERLOTINIB]", "values": [{"measurement": "Population Mitochondria Different-Phenotype (%)", "setting": "[1]; 12 h, replicate 1", "value": "97%, 16%, 6%"}, {"measurement": "Population Pyknosed Nuclei (%)", "setting": "[1]; 12 h, replicate 1", "value": "64%, 22%, 15%"}, {"measurement": "Population Tubulin-Different-Phenotype (%)", "setting": "[1]; 12 h, replicate 1", "value": "91%, 39%, 3%"}, {"measurement": "Population Apoptotic (%)", "setting": "[1]; 12 h, replicate 2", "value": "50%, 12%, 5%"}, {"measurement": "Population Healthy Nuclei (%)", "setting": "[1]; 12 h, replicate 2", "value": "25%, 85%, 86%"}, {"measurement": "Population Membrane Permeable-Phenotype (%)", "setting": "[1]; 12 h, replicate 2", "value": "16% and 2%"}, {"measurement": "Population Mitochondria Different-Phenotype (%)", "setting": "[1]; 12 h, replicate 2", "value": "86% and 22%"}, {"measurement": "Population Pyknosed Nuclei (%)", "setting": "[1]; 12 h, replicate 2", "value": "62%, 8%, 5%"}, {"measurement": "Population Tubulin-Different-Phenotype (%)", "setting": "[1]; 12 h, replicate 2", "value": "97%, 72%, 7%"}, {"measurement": "Total Cell Count", "setting": "[1]; 12 h, replicate 2", "value": "148, 1179, 1766"}, {"measurement": "Population Apoptotic (%)", "setting": "[1]; 24 h, replicate 1", "value": "70%, 31%, 21%"}, {"measurement": "Population Membrane Permeable-Phenotype (%)", "setting": "[1]; 24 h, replicate 1", "value": "0%, 26%, 12%"}, {"measurement": "Population Mitochondria Different-Phenotype (%)", "setting": "[1]; 24 h, replicate 1", "value": "100%, 13%, 5%"}, {"measurement": "Population Pyknosed Nuclei (%)", "setting": "[1]; 24 h, replicate 1", "value": "58%, 17%, 9%"}, {"measurement": "Population Tubulin-Different-Phenotype (%)", "setting": "[1]; 24 h, replicate 1", "value": "100%, 59%, 8%"}, {"measurement": "Population Apoptotic (%)", "setting": "[1]; 24 h, replicate 2", "value": "69%, 6%, 5%"}, {"measurement": "Population Fragmented Nuclei (%)", "setting": "[1]; 24 h, replicate 2", "value": "2% and 27%"}, {"measurement": "Population Membrane Permeable-Phenotype (%)", "setting": "[1]; 24 h, replicate 2", "value": "10%, 24%, 6%"}, {"measurement": "Population Mitochondria Different-Phenotype (%)", "setting": "[1]; 24 h, replicate 2", "value": "89%, 14%, 2%"}, {"measurement": "Population Mitotic Cells (%)", "setting": "[1]; 24 h, replicate 2", "value": "30%, 93%, 94%"}, {"measurement": "Population Pyknosed Nuclei (%)", "setting": "[1]; 24 h, replicate 2", "value": "59%, 7%, 2%"}, {"measurement": "Population Tubulin-Different-Phenotype (%)", "setting": "[1]; 24 h, replicate 2", "value": "96%, 83%, 9%"}, {"measurement": "Total Cell Count", "setting": "[1]; 24 h, replicate 2", "value": "146, 1531, 2984"}, {"measurement": "Population Membrane Permeable-Phenotype (%)", "setting": "[3]; 12 h, replicate 1", "value": "27%, 30%, 5%"}, {"measurement": "Population Mitochondria Different-Phenotype (%)", "setting": "[3]; 12 h, replicate 1", "value": "22%, 4%, 2%"}, {"measurement": "Population Tubulin-Different-Phenotype (%)", "setting": "[3]; 12 h, replicate 1", "value": "95%, 73%, 14%"}, {"measurement": "Population Apoptotic (%)", "setting": "[3]; 12 h, replicate 2", "value": "28%, 70%, 100%"}, {"measurement": "Population Fragmented Nuclei (%)", "setting": "[3]; 12 h, replicate 2", "value": "61%, 50%, 16%"}, {"measurement": "Population Healthy Nuclei (%)", "setting": "[3]; 12 h, replicate 2", "value": "22%, 33%, 80%"}, {"measurement": "Population Hoechst High Intensity Objects (%)", "setting": "[3]; 12 h, replicate 2", "value": "42%, 33%, 8%"}, {"measurement": "Population Mitochondria Different-Phenotype (%)", "setting": "[3]; 12 h, replicate 2", "value": "20%, 14%, 72%"}, {"measurement": "Population Mitotic Cells (%)", "setting": "[3]; 12 h, replicate 2", "value": "71%, 30%, 0%"}, {"measurement": "Population Pyknosed Nuclei (%)", "setting": "[3]; 12 h, replicate 2", "value": "15% and 2%"}, {"measurement": "Population Tubulin-Different-Phenotype (%)", "setting": "[3]; 12 h, replicate 2", "value": "50%, 23%, 86%"}, {"measurement": "Total Cell Count", "setting": "[3]; 12 h, replicate 2", "value": "77, 95, 1335"}, {"measurement": "Population Membrane Permeable-Phenotype (%)", "setting": "[3]; 24 h, replicate 1", "value": "30%, 13%, 5%"}, {"measurement": "Population Mitochondria Different-Phenotype (%)", "setting": "[3]; 24 h, replicate 1", "value": "39%, 12%, 2%"}, {"measurement": "Population Tubulin-Different-Phenotype (%)", "setting": "[3]; 24 h, replicate 1", "value": "84%, 79%, 7%"}, {"measurement": "Population Fragmented Nuclei (%)", "setting": "[3]; 24 h, replicate 2", "value": "51%, 66%, 16%"}, {"measurement": "Population Healthy Nuclei (%)", "setting": "[3]; 24 h, replicate 2", "value": "37%, 16%, 66%"}, {"measurement": "Population Membrane Permeable-Phenotype (%)", "setting": "[3]; 24 h, replicate 2", "value": "31%, 0%, 14%"}, {"measurement": "Population Mitochondria Different-Phenotype (%)", "setting": "[3]; 24 h, replicate 2", "value": "9%, 28%, 75%"}, {"measurement": "Population Mitotic Cells (%)", "setting": "[3]; 24 h, replicate 2", "value": "0%, 42%, 25%"}, {"measurement": "Population Tubulin-Different-Phenotype (%)", "setting": "[3]; 24 h, replicate 2", "value": "22%, 71%, 87%"}, {"measurement": "Total Cell Count", "setting": "[3]; 24 h, replicate 2", "value": "81, 68, 1359"}]}]}
